Read counts are not given, so values of variants with three or more changes are uncertain.

The chains are these.
B1: CPEB3 Ribozyme (parent)
chain: UAACAGGGGGCCACAGCAGAAGCGUUCACGUCGCAGCCCCUGUCAGAUUCUGGUGAAUCUGCGAAUUCUGCUGUAUAUCUC

In the data set the parent is B1. The data set is described as follows: self-cleavage, relative activity (ratio to wild type); higher = more cleavage; in vitro, sequencing. In a few lines:
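For each CPEB3 ribozyme variant, relative activity is its cleaved/total read fraction divided by the unmutated ribozyme's. Barcoded error-prone PCR libraries were transcribed by T7 RNA polymerase (5 hours, 37°C) and held in DNase I for 15 min before an EDTA stop, with cleavage occurring throughout. Template-switching reverse transcription and Illumina sequencing were used to read the RNAs. A 5-read minimum applied, and results are the mean of three batches.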
Consider U25C A35U G46U U58A U67C, for which the self-cleavage came out at 0.07.
Next, U25C A35G U49A U60A A64G: 0.25; G24U U54C U80A: 0.3; U25A G36C U54G: 0.29.
The same measure for U25A U43C U67G U78C: 0.1; for G24C U58G A64U: 0.55.
Next, U25A U31A U60C A75U: 0.2; U25C A35U A47G U51A U69A: 0.47.
Take U25A A45G A57G U67A: the self-cleavage turned out to be 0.05.
The same measure for U25A U26C A35G A57G U67A U74C U80G: 0.02; for U25A U74G A75G: 0.13.
With U25A U54C A57G U60A, the self-cleavage amounted to 0.14.
For the variant U25A U26C U80C, the self-cleavage is 0.13.
Turning to U25A A35G G42C A45U U54C, the self-cleavage came out at 0.21.
The same measure for U25C C27A U31C C44A: 0.08.
Next, U25C C27A U41A U51A A64U U80C: 0.64; U25C A64G A65G: 0.47; U25A G55C A64G: 0.14.
As for U25C A35U U51C, the self-cleavage is 0.22.
Turning to U25C A28G U41A C62U, the self-cleavage is 0.1.
For the variant U25C A28G C59A, the self-cleavage worked out at 0.1.
The same measure for U25C A45U U48C C50U U67A: 0.04; for G24U C29U C37U U54A: 0.15.
As to U25C C32G G52A U60A U67A C81U, the self-cleavage came out at 0.03.
The same measure for U25C A45G A47G U60C C68U: 0.24.
Next, U25C A35U U43A A57G U58C U78C: 0.15.
For U25C A28G G55A A64G, the self-cleavage came to 0.2.
Next, G24C U26C G36A U48C G53C: 0.18; U25C A28G A47G U49A U72A A77U U80C: 0.05; U25C A47G U76C: 0.26.
The same measure for U25A U51C U67A: 0.21.
As for U25A A56U A64G, the self-cleavage was found to be 0.17.
The same measure for U25A U41G U51C U72C: 0.12.
Turning to U25A U69C U74C C79G, the self-cleavage is 0.06.
Turning to U25C A47G U80C, the self-cleavage was determined as 0.32.
The same measure for U25C A45U G63U: 0.24; for U25C A45U G63C: 0.24.
In the case of U25C A57G U58C U60A A65G U74A A75G, the self-cleavage was 0.05.
As to U25A U74C U80C, the self-cleavage was found to be 0.52.
Next, U25C A47G U60A: 0.15; U25C A47G U60C: 0.19; U25C A45U G55U U78G: 0.11.
Take U25A U54A A56G: the self-cleavage came out at 0.54.
The same measure for U25C A28G U80C: 0.36; for U25A U31C U43G: 0.4; for U25A C39U U72C: 0.24.
Next, U25A U41A U48C: 0.37.
The same measure for U25A U54C A64U: 0.2.
As to U25A A45U A77G, the self-cleavage is 0.22.
Turning to U25C A35G A57C, the self-cleavage stood at 0.39.
Next, U25A A28G U51A A57G U60C A65G: 0.16; U25C A28C U31A: 0.22; U25A G36U U41A G70U: 0.13.
Next, U25C A35U C71A: 0.06; U25C C32U C34U U43C: 0.19; U25A U26C A64G: 0.21.
The same measure for U25A U26A U43G U72A A75U: 0.2; for U25A U41C U60A A65G C81U: 0; for U25A A28G A47G U69C: 0.15.
For the variant U25C A28U U49C, the self-cleavage was 0.08.
In the case of U25C A45G A47G A56G A57G U58A U72C, the self-cleavage stood at 0.
Next, U25A G42C U72C: 0.1.
The same measure for U25C A57C A77G: 0.1; for U25A U41A A64G: 0.11; for U25C A35G U43C U67C U72C: 0.15.
Next, U25C A65U U67A: 0.11; U25A A35G G61A: 0.28.
Regarding G24U U41C U58C A65G, the self-cleavage worked out at 0.12.
For the variant U25A U31A G42A U43C U78A, the self-cleavage worked out at 0.07.
U25C A35U A75G U78C: the self-cleavage is 0.1.
U25C C29U U78A: the self-cleavage came out at 0.21.
On to U25C A35G U41A C62A, for which the self-cleavage was 0.31.
Turning to U25C A28G U43C, the self-cleavage turned out to be 0.4.
On to U25A U48C G63A U66C U72C, for which the self-cleavage is 0.14.
The same measure for U25C C29A U54C U60C U78C: 0.27.
The same measure for U25A G42A U78A U80C: 0.29; for U25C A47G U67C U69C U72C: 0.13.
In the case of U25C A35U C50A A56G U60C U66C U76A, the self-cleavage turned out to be 0.05.
As for U25C C29U G73A, the self-cleavage came out at 0.28.
Regarding U25A U43C U51C U78C, the self-cleavage is 0.2.
The same measure for U25A C40U U48A U67C: 0.11.
As to G24A U66C A75U, the self-cleavage amounted to 0.62.
Next, U25C A28G C39U U51C G53A A65G: 0.1.

Source of the values: the RNAGym collection of RNA variant scans (doi:10.1093/nar/gkz1192).
